{
  "source": "the supplement of paper PMC4967469",
  "note": "A lower IC50 marks a more sensitive line; a fit beyond the top or the lowest dose is shown as a bound at that dose. The AUC spans the tested range (256-fold, ending at the top dose) of the same fit; values near 1 show little effect. A top dose marked as inferred comes from the curve model; the source does not state it.",
  "data": [
    {"compound": "C=CC(=O)Nc1cccc(Nc2nc(NC3CCC(N(C)C)CC3)nc3c2ncn3C(C)C)c1 [WZ3105]", "assay": "Viability of human cancer cell lines after 72 h of drug (GDSC screen)", "conditions": "top dose inferred", "description": "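Human cancer cell lines in 384-well plates, medium with 10% serum, drug for 72 h over a 256-fold dose range (nine 2-fold or five 4-fold steps up to the top dose). Adherent lines were fixed and stained with the nucleic acid dye Syto60, suspension lines read with resazurin; signal relative to control wells, capped at 0 and 100%. One two-parameter sigmoid per drug and line, fitted in a mixed model over all curves with the slope shared within a line.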", "units": {"IC50": "nM"}, "values": [
      {"cell line": "NCI-H810 (large cell lung carcinoma, adherent, top dose 1.28 µM)", "AUC": 0.683, "IC50": 254},
      {"cell line": "NCI-H838 (lung adenocarcinoma, adherent, top dose 1.28 µM)", "AUC": 0.854, "IC50": 1080},
      {"cell line": "NCI-H841 (small cell lung carcinoma, adherent, top dose 1.28 µM)", "AUC": 0.741, "IC50": 394},
      {"cell line": "NCI-H847 (small cell lung carcinoma, adherent, top dose 1.28 µM)", "AUC": 0.566, "IC50": 117},
      {"cell line": "NCI-H1048 (small cell lung carcinoma, adherent, top dose 1.28 µM)", "AUC": 0.691, "IC50": 258},
      {"cell line": "NCI-H1092 (small cell lung carcinoma, suspension, top dose 1.28 µM)", "AUC": 0.783, "IC50": 545},
      {"cell line": "NCI-H1155 (large cell lung carcinoma, suspension, top dose 1.28 µM)", "AUC": 0.993, "IC50": "> 1280"},
      {"cell line": "NCI-H1299 (large cell lung carcinoma, adherent, top dose 1.28 µM)", "AUC": 0.918, "IC50": "> 1280"},
      {"cell line": "NCI-H1304 (small cell lung carcinoma, suspension, top dose 1.28 µM)", "AUC": 0.845, "IC50": 1040},
      {"cell line": "NCI-H1355 (lung adenocarcinoma, adherent, top dose 1.28 µM)", "AUC": 0.94, "IC50": "> 1280"},
      {"cell line": "NCI-H1395 (lung adenocarcinoma, adherent, top dose 1.28 µM)", "AUC": 0.68, "IC50": 304},
      {"cell line": "NCI-H1417 (small cell lung carcinoma, suspension, top dose 1.28 µM)", "AUC": 0.643, "IC50": 215},
      {"cell line": "NCI-H1435 (lung adenocarcinoma, semi-adherent, top dose 1.28 µM)", "AUC": 0.992, "IC50": "> 1280"},
      {"cell line": "NCI-H1436 (small cell lung carcinoma, suspension, top dose 1.28 µM)", "AUC": 0.849, "IC50": 1170},
      {"cell line": "NCI-H1437 (lung adenocarcinoma, adherent, top dose 1.28 µM)", "AUC": 0.767, "IC50": 494},
      {"cell line": "NCI-H1563 (lung adenocarcinoma, adherent, top dose 1.28 µM)", "AUC": 0.789, "IC50": 687},
      {"cell line": "NCI-H1568 (lung adenocarcinoma, adherent, top dose 1.28 µM)", "AUC": 0.765, "IC50": 581},
      {"cell line": "NCI-H1573 (lung adenocarcinoma, adherent, top dose 1.28 µM)", "AUC": 0.979, "IC50": "> 1280"},
      {"cell line": "NCI-H1581 (large cell lung carcinoma, semi-adherent, top dose 1.28 µM)", "AUC": 0.71, "IC50": 296},
      {"cell line": "NCI-H1623 (lung adenocarcinoma, adherent, top dose 1.28 µM)", "AUC": 0.95, "IC50": "> 1280"},
      {"cell line": "NCI-H1648 (lung adenocarcinoma, adherent, top dose 10.24 µM)", "AUC": 0.41, "IC50": 356},
      {"cell line": "NCI-H1651 (lung adenocarcinoma, adherent, top dose 1.28 µM)", "AUC": 0.981, "IC50": "> 1280"},
      {"cell line": "NCI-H1666 (lung adenocarcinoma, semi-adherent, top dose 10.24 µM)", "AUC": 0.617, "IC50": 1390},
      {"cell line": "NCI-H1688 (small cell lung carcinoma, adherent, top dose 1.28 µM)", "AUC": 0.851, "IC50": 1140},
      {"cell line": "NCI-H1693 (lung adenocarcinoma, adherent, top dose 10.24 µM)", "AUC": 0.821, "IC50": "> 10200"},
      {"cell line": "NCI-H1694 (small cell lung carcinoma, suspension, top dose 1.28 µM)", "AUC": 0.759, "IC50": 443},
      {"cell line": "NCI-H1703 (lung adenocarcinoma, adherent, top dose 1.28 µM)", "AUC": 0.697, "IC50": 327},
      {"cell line": "NCI-H1734 (lung adenocarcinoma, adherent, top dose 10.24 µM)", "AUC": 0.689, "IC50": 2290},
      {"cell line": "NCI-H1755 (lung adenocarcinoma, adherent, top dose 1.28 µM)", "AUC": 0.9, "IC50": "> 1280"},
      {"cell line": "NCI-H1770 (non-small cell lung carcinoma, suspension, top dose 1.28 µM)", "AUC": 0.97, "IC50": "> 1280"},
      {"cell line": "NCI-H1781 (lung adenocarcinoma, adherent, top dose 1.28 µM)", "AUC": 0.944, "IC50": "> 1280"},
      {"cell line": "NCI-H1792 (lung adenocarcinoma, adherent, top dose 1.28 µM)", "AUC": 0.976, "IC50": "> 1280"},
      {"cell line": "NCI-H1793 (lung adenocarcinoma, adherent, top dose 1.28 µM)", "AUC": 0.962, "IC50": "> 1280"},
      {"cell line": "NCI-H1836 (small cell lung carcinoma, suspension, top dose 1.28 µM)", "AUC": 0.654, "IC50": 224},
      {"cell line": "NCI-H1838 (lung adenocarcinoma, adherent, top dose 1.28 µM)", "AUC": 0.924, "IC50": "> 1280"},
      {"cell line": "NCI-H1869 (lung squamous cell carcinoma, adherent, top dose 1.28 µM)", "AUC": 0.944, "IC50": "> 1280"},
      {"cell line": "NCI-H1876 (small cell lung carcinoma, adherent, top dose 1.28 µM)", "AUC": 0.688, "IC50": 271},
      {"cell line": "NCI-H1915 (large cell lung carcinoma, adherent, top dose 1.28 µM)", "AUC": 0.677, "IC50": 253},
      {"cell line": "NCI-H1944 (lung adenocarcinoma, adherent, top dose 1.28 µM)", "AUC": 0.609, "IC50": 163},
      {"cell line": "NCI-H1975 (lung adenocarcinoma, adherent, top dose 10.24 µM)", "AUC": 0.604, "IC50": 1290},
      {"cell line": "NCI-H1993 (lung adenocarcinoma, adherent, top dose 1.28 µM)", "AUC": 0.616, "IC50": 185},
      {"cell line": "NCI-H2009 (lung adenocarcinoma, adherent, top dose 1.28 µM)", "AUC": 0.981, "IC50": "> 1280"},
      {"cell line": "NCI-H2023 (lung adenocarcinoma, adherent, top dose 1.28 µM)", "AUC": 0.965, "IC50": "> 1280"},
      {"cell line": "NCI-H2029 (small cell lung carcinoma, adherent, top dose 1.28 µM)", "AUC": 0.848, "IC50": 814},
      {"cell line": "NCI-H2030 (lung adenocarcinoma, adherent, top dose 1.28 µM)", "AUC": 0.744, "IC50": 449},
      {"cell line": "NCI-H2052 (mesothelioma, adherent, top dose 1.28 µM)", "AUC": 0.95, "IC50": "> 1280"},
      {"cell line": "NCI-H2081 (small cell lung carcinoma, suspension, top dose 1.28 µM)", "AUC": 0.874, "IC50": "> 1280"},
      {"cell line": "NCI-H2085 (lung adenocarcinoma, adherent, top dose 1.28 µM)", "AUC": 0.849, "IC50": 1080},
      {"cell line": "NCI-H2087 (lung adenocarcinoma, semi-adherent, top dose 10.24 µM)", "AUC": 0.445, "IC50": 448},
      {"cell line": "NCI-H2110 (non-small cell lung carcinoma, adherent, top dose 1.28 µM)", "AUC": 0.78, "IC50": 540},
      {"cell line": "NCI-H2122 (lung adenocarcinoma, adherent, top dose 10.24 µM)", "AUC": 0.852, "IC50": 7120},
      {"cell line": "NCI-H2135 (non-small cell lung carcinoma, adherent, top dose 1.28 µM)", "AUC": 0.879, "IC50": 1240},
      {"cell line": "NCI-H2141 (small cell lung carcinoma, suspension, top dose 1.28 µM)", "AUC": 0.817, "IC50": 691},
      {"cell line": "NCI-H2170 (lung squamous cell carcinoma, adherent, top dose 1.28 µM)", "AUC": 0.907, "IC50": "> 1280"},
      {"cell line": "NCI-H2171 (small cell lung carcinoma, suspension, top dose 1.28 µM)", "AUC": 0.718, "IC50": 300},
      {"cell line": "NCI-H2172 (non-small cell lung carcinoma, adherent, top dose 1.28 µM)", "AUC": 0.979, "IC50": "> 1280"},
      {"cell line": "NCI-H2196 (small cell lung carcinoma, adherent, top dose 1.28 µM)", "AUC": 0.74, "IC50": 407},
      {"cell line": "NCI-H2227 (small cell lung carcinoma, semi-adherent, top dose 1.28 µM)", "AUC": 0.709, "IC50": 338},
      {"cell line": "NCI-H2228 (lung adenocarcinoma, adherent, top dose 1.28 µM)", "AUC": 0.879, "IC50": "> 1280"},
      {"cell line": "NCI-H2291 (lung adenocarcinoma, adherent, top dose 1.28 µM)", "AUC": 0.983, "IC50": "> 1280"},
      {"cell line": "NCI-H2342 (lung adenocarcinoma, adherent, top dose 1.28 µM)", "AUC": 0.986, "IC50": "> 1280"},
      {"cell line": "NCI-H2347 (lung adenocarcinoma, adherent, top dose 1.28 µM)", "AUC": 0.816, "IC50": 913},
      {"cell line": "NCI-H2405 (lung adenocarcinoma, adherent, top dose 1.28 µM)", "AUC": 0.88, "IC50": "> 1280"},
      {"cell line": "NCI-H2444 (non-small cell lung carcinoma, adherent, top dose 1.28 µM)", "AUC": 0.988, "IC50": "> 1280"},
      {"cell line": "NCI-H2452 (mesothelioma, adherent, top dose 1.28 µM)", "AUC": 0.981, "IC50": "> 1280"},
      {"cell line": "NCI-H3122 (lung adenocarcinoma, adherent, top dose 1.28 µM)", "AUC": 0.662, "IC50": 229},
      {"cell line": "NCI-SNU-1 (stomach, suspension, top dose 1.28 µM)", "AUC": 0.8, "IC50": 646},
      {"cell line": "NCI-SNU-5 (stomach, suspension, top dose 1.28 µM)", "AUC": 0.987, "IC50": "> 1280"},
      {"cell line": "NCI-SNU-16 (stomach, suspension, top dose 1.28 µM)", "AUC": 0.926, "IC50": "> 1280"},
      {"cell line": "NEC8 (testis, adherent, top dose 1.28 µM)", "AUC": 0.926, "IC50": "> 1280"}
    ]}
  ]
}
